Test results from PubChem BioAssay AID1240 (Sanford-Burnham Center for Chemical Genomics, 2008).
Hit rate of the full screen: of about 50,000 compounds, about 800 (1.6%) showed an effect of 50% or more. Some of the results follow.

Biological target: Bcl-2-like protein 10 (Homo sapiens) (UniProt Q9HD36)
Experiment: TR3 peptide-Bcl-B binding displacers, biochemical primary FP assay, phenotype converters (AID 1240);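 further: 0% = Bcl-B with tracer peptide and DMSO and 100% = tracer peptide lacking Bcl-B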
Conditions: GST-Bcl-B / FITC-TR3 peptide fluorescence polarization; stronger effect = higher value; compound at 3.75 mg/L

Chain of UniProt Q9HD36 (Q9HD36 whole entry, looked up): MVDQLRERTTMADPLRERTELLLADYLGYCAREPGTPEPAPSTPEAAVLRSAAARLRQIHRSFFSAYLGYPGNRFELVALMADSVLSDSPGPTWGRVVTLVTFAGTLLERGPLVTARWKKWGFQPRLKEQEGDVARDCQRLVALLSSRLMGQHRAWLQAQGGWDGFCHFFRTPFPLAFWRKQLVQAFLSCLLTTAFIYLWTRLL

| Structure (SMILES) | displacement [%] |
| --- | --- |
| C=CCOc1ccc(/C=C2\SC(=S)N(c3ccc(OC)cc3)C2=O)cc1OC | 6.7 |
| CCCN1CCC(=NNC(=O)c2ccc(OC)c(OC)c2)CC1 | -3.7 |
| Cc1ccc(C(=O)Nc2ncccn2)o1 | 6.3 |
| CC(C)CNC(=O)c1cccc(NC(=O)/C=C/c2ccccc2)c1 | -10.4 |
| COc1cc(/C=C2/SC(=Nc3ccccc3)NC2=O)ccc1OCc1ccccc1[N+](=O)[O-] | 7.5 |
| Cc1cc(=O)oc2cc(OC(=O)Cc3ccccc3)ccc12 | 14.4 |
| Cc1ccc(CNC(=O)CN2C(=O)c3ccccc3C2=O)cc1 | 5 |
| COc1ccc(S(=O)(=O)N2CCN(Cc3ccccc3)CC2)cc1[N+](=O)[O-] | -4.1 |
| COc1ccc(CCNC(=O)C(Cl)(Cl)Cl)cc1 | 3.4 |
| CCn1c(CCCO)nc2ccccc21 | -6.8 |
| O=C(Cc1ccc(Cl)cc1)Nc1ccc2c(c1)OCO2 | 15 |
| O=C(Nc1ccccc1)Nc1ccc(S(=O)(=O)N2CCCCC2)cc1 | -3.3 |
| Cc1ccc(N(CC(=O)Nc2ccc(Br)cc2)S(C)(=O)=O)cc1Cl | -2.3 |
| CCn1c(SCC(=O)OC)nc2sc3c(c2c1=O)CCC3 | 8.5 |
| COc1ccc(/C=C/C(=O)Nc2nc(-c3ccc(Cl)cc3)cs2)cc1OC | 2.2 |
| CCCOC(=O)c1ccc(NC(=O)COc2ccc3ccccc3c2)cc1 | 12.1 |
| CC(NC(=O)c1ccco1)C1COc2ccccc2O1 (centres undefined) | 4.6 |
| CN(C(=O)c1cccs1)c1ccccc1C(=O)O | -1.3 |
| CC1CCCN(C(=O)Cc2ccc(Cl)cc2)C1 (centres undefined) | 6.5 |
| O=C(NC(=S)Nc1ccc2oc(-c3ccc(Br)cc3)nc2c1)c1ccco1 | 11.6 |
| CC(=O)Nc1nc2ccccc2n1CCCN(C)C | -5.5 |
| CC1=C(C(=O)OC2CCCC2)C(c2ccc(Cl)cc2)NC(=O)N1C (centres undefined) | -3.5 |

| Structure (SMILES) | displacement [%] |
| --- | --- |
| COC(=O)c1ccc(/C=C2\C(=O)NC(=S)N(c3cccc(Br)c3)C2=O)cc1 | 13.8 |
| O=C(O)c1c(-c2ccccc2)oc2ccc(OCc3ccccc3F)cc12 | 11.7 |
| O=C(COc1ccccc1)N1CCNCC1 | -5.1 |
| O=C(Nc1ccccc1Cl)c1ccccc1[N+](=O)[O-] | 12.1 |
| O=C(O)CC1S/C(=N/N=C/c2ccc([N+](=O)[O-])cc2)N(c2ccc(O)cc2)C1=O (centres undefined) | 13.4 |
| NS(=O)(=O)c1ccc(CNC(=O)c2ccc(Cl)cc2)cc1 | -7.2 |
| O=C(CCCN1C(=O)/C(=C/c2ccc(F)cc2)SC1=S)Nc1ccc(C(=O)O)cc1 | -15.3 |
| CCOc1cc(C(=S)N2CCOCC2)ccc1OS(=O)(=O)c1ccc(C)cc1 | 11.2 |
| CN1C2=NC(=O)/C(=C/c3ccc([N+](=O)[O-])o3)N2c2ccccc21 | -7.1 |
| CCCOP(=O)(OCCC)C(Nc1cccc(C(F)(F)F)c1)c1ccc(C)cc1 (centres undefined) | 14.3 |
| COc1ccc(C(=O)Nc2ccccc2C(=O)NCCC(=O)Nc2ccccc2)cc1 | 11 |
| CC1(C)Cc2ccccc2-c2nnc(-c3cccs3)n21 | -8.6 |
| O=C(O)c1ccc(-c2cccc(OC(F)(F)F)c2)o1 | -0.6 |
| O=Cc1cn(CCOc2ccc(Cl)cc2)c2ccccc12 | -2 |
| CC(=O)c1cc(-c2ccccc2)[nH]c1N1CCOCC1 | -9.2 |
| Cc1ccc(N2C(=O)NC(=O)/C(=C/c3ccc(OCC(=O)O)cc3)C2=O)cc1 | -14.8 |
| COC(=O)c1ccc(C(=O)Nc2cc(Cl)ccc2Cl)cc1NC(=O)C(C)Oc1ccccc1 (centres undefined) | 2.5 |
| Cc1c(NC(=O)c2nn3c(c2Cl)NC(c2ccc(Cl)cc2)CC3C(F)(F)F)c(=O)n(-c2ccccc2)n1C (centres undefined) | 9.6 |
| CN1CCN(C2CC(=O)N(c3ccc(Cl)c(Cl)c3)C2=O)CC1 (centres undefined) | 2.8 |
| COc1ccccc1OCCOc1ccc(Br)cc1/C=N/n1cnnc1 | 15.6 |
| Cc1ccc(C2C(=O)c3ccccc3C2=O)c(C)c1C | -9.2 |
| Cc1ccc(NC(=S)NC(=O)/C=C/c2ccco2)c(Br)c1 | -2.8 |

| Structure (SMILES) | displacement [%] |
| --- | --- |
| COc1ccc(NC(=O)COc2cccc(Cl)c2)c([N+](=O)[O-])c1 | -5.5 |
| O/N=C/c1cn(-c2ccccc2)nc1-c1ccc(Cl)cc1 | -3.8 |
| COC(=O)c1c(-c2ccccc2)csc1NC(=O)C1CC=CCC1C(=O)O (centres undefined) | 1 |
| CC(=O)CC(=O)NCc1ccc(Cl)cc1 | 3.5 |
| CCOc1ccc2nc(SC3CC(=O)N(c4cccc(OC)c4)C3=O)sc2c1 (centres undefined) | 10.2 |
| CCCC(=O)NS(=O)(=O)c1ccc(NC(=O)c2ccccc2Cl)cc1 | 11.2 |
| O=C(N/N=C/c1ccc(Cl)cc1Cl)C1CC(=O)N(c2ccc(F)cc2)C1 (centres undefined) | -6.2 |
| O=C(/C=C/c1ccccc1OCc1ccccc1)c1ccc(Cl)cc1 | -1.9 |
| COc1ccc(C2CC(=O)C3=C(C2)Nc2ccccc2NC3c2ccc(F)c(Br)c2)cc1 (centres undefined) | 5 |
| COc1cc(CN2CCN(C(=O)c3cccc(Cl)c3)CC2)cc(OC)c1OC | -5 |
| O=C(Cn1nnc(-c2ccccc2)n1)Nc1ccccc1[N+](=O)[O-] | 8.8 |
| Cc1c(NC(=O)C(Cc2ccccc2)N2C(=O)c3ccccc3C2=O)c(=O)n(-c2ccccc2)n1C (centres undefined) | 9.4 |
| CC(C)CC(NC(N)=O)c1ccccc1 (centres undefined) | 5.2 |
| COc1cccc(C(=O)NC(NC(=S)Nc2ccccc2Cl)C(Cl)(Cl)Cl)c1 (centres undefined) | 13.2 |
| O=C(COc1ccccc1Cl)NCCCN1CCOCC1 | -2.6 |
| O=C(O)c1ccc(/C=C2\SC(=S)N(C(Cc3ccccc3)C(=O)O)C2=O)cc1 (centres undefined) | 15 |
| Cc1ccc(-c2csc(NC(=O)c3ccc(Cl)c(Cl)c3)n2)cc1 | -3.6 |
| COc1ccc(C2NC(=O)NC(C)=C2C(=O)Nc2cccc(Cl)c2)cc1 (centres undefined) | 11.4 |
| Cc1ccc(C=C2C(=O)N(C)C(=O)N(C)C2=O)cc1 | 79.7 |
| Cn1c(=O)c2c(nc(SCC(=O)O)n2C)n(C)c1=O | -1.5 |
| O=C1N=C(N2CCCCC2)S/C1=C\c1ccccc1Cl | -4.2 |
| CCOC(=O)/C=C(\C)Nc1cc(C)nn1-c1ccccc1 | -9.5 |

| Structure (SMILES) | displacement [%] |
| --- | --- |
| CC(=O)c1cccc(NC(=O)/C(=C/c2cccnc2)NC(=O)c2cccc(Br)c2)c1 | -7.6 |
| COc1cc(/C=N/NS(=O)(=O)c2ccc(C)cc2)ccc1OC(=O)Nc1ccccc1 | 8 |
| CC1(C)CC(=O)C/C(=N/NC(=O)c2ccccc2)C1 | 4.9 |
| O=S(=O)(Nc1ccc(N2CCCCC2)cc1)c1cccc2cccnc12 | -1.9 |
| CC1(C(=O)NCc2cccnc2)CC2c3ccccc3C1c1ccccc12 (centres undefined) | 7.2 |
| COc1cccc(NC(=O)CN(c2ccc(Cl)cc2)S(C)(=O)=O)c1 | -17.7 |
| COc1ccc(NC(=O)c2c(-c3ccccc3Cl)noc2C)cc1 | 8.5 |
| Cc1cccc(N2C(=O)/C(=C/c3ccc(F)cc3)SC2=S)c1C | 3 |
| Cc1onc(-c2c(F)cccc2Cl)c1C(=O)N1CCOCC1 | -7.9 |
| Cc1cc2nc(-c3cc(NC(=O)c4cc5ccccc5o4)ccc3O)oc2cc1C | -16 |
| Cc1ccc(Nc2nc3nonc3nc2N)c(C)c1 | 45.7 |
| COc1ccc2c(=O)cc(C(F)(F)C(F)(F)C(F)(F)C(F)F)oc2c1 | -1.2 |
| CCOc1ccc(S(=O)(=O)Nc2ccc(NC(C)=O)cc2)cc1 | 5.2 |
| Cc1cccc(N2CCN(C(=O)Nc3ccc(Cl)c(Cl)c3)CC2)c1C | -0.9 |
| O=C(Nc1cc(C(F)(F)F)cc(C(F)(F)F)c1)c1ccc([N+](=O)[O-])cc1 | -7.2 |
| O=C1NN(c2cccc(Cl)c2)C(=O)/C1=C\C=C\c1cccc([N+](=O)[O-])c1 | -1 |
| CC(C)Cn1c(SCc2ccc(Br)cc2)nc2sc3c(c2c1=O)CC(C)(C)OC3 | -6.8 |
| CC1=C(C(=O)OCCc2ccccc2)C(c2cc([N+](=O)[O-])ccc2Cl)C2=C(CCCC2=O)N1 (centres undefined) | -5.1 |
| CC(C)(C)c1ccc(C(=O)N2N=C(c3ccc([N+](=O)[O-])cc3)CC2(O)C(F)(F)F)cc1 (centres undefined) | 2.9 |
| Cc1ccc(OCC(=O)Nc2ccccc2C(F)(F)F)c(C)c1 | -8.5 |
| CCOc1ccccc1NC(=O)c1c(Cl)ccc(Cl)c1OC | 1.3 |
| COC(=O)C1=CN(Cc2cccs2)C=C(C(=O)OC)C1c1cc(OC)c(OC)c(OC)c1 | 5.3 |

| Structure (SMILES) | displacement [%] |
| --- | --- |
| O=C(O)c1cc2n(n1)C(C(F)(F)F)CC(c1ccc3c(c1)OCO3)N2 (centres undefined) | 7.9 |
| C=CCN1C(=O)/C(=C\c2cccs2)SC1=S | 6.7 |
| CCOC(=O)/C(N=Nc1cc(C)ccc1OC)=C(/C)O | -1.5 |
| COc1ccc(-n2c(O)c(C=Nc3ccc(C)cc3)c(=O)[nH]c2=O)cc1 | 1 |
| COc1ccc(NC(=O)c2cnccn2)cc1 | 105 |
| CCC(Oc1ccccc1)C(=O)N1CCN(c2ccccc2)CC1 (centres undefined) | -1.6 |
| COc1ccc(O)c(C2N(Cc3ccccc3O)CCN2Cc2ccccc2O)c1 | -13.2 |
| O=C(N=Nc1c(O)[nH]c2ccc([N+](=O)[O-])cc12)c1cccc(Br)c1 | 3.3 |
| CCOC(=O)c1c[nH]c2c(ccc3ccccc32)c1=O | 18.1 |
| O=C(Nc1ccc2c(c1)OCO2)c1ccc(Cl)cc1[N+](=O)[O-] | -4.5 |
| CC1CN(c2ccc(Cl)cc2[N+](=O)[O-])CCN1S(C)(=O)=O (centres undefined) | -11 |
| Cc1cc(C)c(NS(=O)(=O)c2ccc(Cl)c([N+](=O)[O-])c2)c(C)c1 | 2.5 |
| CC(C)(C)c1cc(CCC(=O)NNC(=O)c2ccccc2)cc(C(C)(C)C)c1O | -2.2 |
| Cc1cc(Cl)ccc1OCC(=O)Nc1nc2ccc(Cl)cc2s1 | -7.8 |
| Cc1ccc(NC(=O)CN(c2cccc(C(F)(F)F)c2)S(C)(=O)=O)c(C)c1 | -2.3 |
| CCN(CC)c1ccc(C2NC(=O)NC(C)=C2C(=O)OCc2ccc(OC)cc2)cc1 (centres undefined) | 3.9 |
| CCCCOCC(O)CCc1n[nH]c(=S)n1-c1ccccc1 (centres undefined) | 3.4 |
| CCCCN(CCCC)S(=O)(=O)c1ccccc1[N+](=O)[O-] | -4.1 |
| Cc1ccc(NC(=O)/C=C/c2cccc(C(F)(F)F)c2)cc1 | -0.3 |
| Cc1ccc(/C(O)=C2/C(=O)C(=O)N(CCCn3ccnc3)C2c2ccc(Cl)cc2)cc1 (centres undefined) | 2.3 |
| O=C1N(c2ccccc2)C2CS(=O)(=O)CC2N1c1ccc(Cl)cc1 (centres undefined) | 4.6 |
